± gives the standard error. Variants at the floor of the assay are shown more often than the library holds them.
B1: glmS ribozyme (parent)
chain: AUAAAAGCGCCAGAACUACAGAAAUGUAGUUGACGAGGAGGAGGUUUAUCGAAUUUUCGGCGGAUGCCUCCAAA

Columns and labels:
Details in all cases: with glucosamine-6-phosphate
glucosamine-6-phosphate [1] = variants of: B1; assay: self-cleavage kobs at 640 uM GlcN6P; higher = faster cleavage; RNA array
In short: (§1)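 Tiles of sequenced MiSeq chips were imaged over ~14 h at 37 °C. On them, barcoded ribozyme variants had been transcribed in situ by E. coli RNA polymerase and were tracked via a hybridised Cy3 probe while glucosamine-6-phosphate (40 μM to 10 mM) in HEPES/KCl/Mg(OAc)2 buffer flowed in. Per-tile medians, normalised to baseline and to non-cleaving reference variants, were fit to one- or two-exponential decays for kobs, and weighted Michaelis–Menten fits gave kcat and KM.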

glucosamine-6-phosphate [2] = variants of: B1; assay: self-cleavage kobs at 160 uM GlcN6P; higher = faster cleavage; RNA array
In short: as §1

glucosamine-6-phosphate [3] = variants of: B1; assay: self-cleavage kobs at 10000 uM GlcN6P; higher = faster cleavage; RNA array
In short: as §1

glucosamine-6-phosphate [4] = variants of: B1; assay: self-cleavage kobs at 2500 uM GlcN6P; higher = faster cleavage; RNA array
In short: as §1

Variant | self-cleavage kobs at 640 uM GlcN6P (glucosamine-6-phosphate [1]) [s⁻¹] | self-cleavage kobs at 160 uM GlcN6P (glucosamine-6-phosphate [2]) [s⁻¹] | self-cleavage kobs at 10000 uM GlcN6P (glucosamine-6-phosphate [3]) [s⁻¹] | self-cleavage kobs at 2500 uM GlcN6P (glucosamine-6-phosphate [4]) [s⁻¹]
A33G U54G | < 1e-05 | < 1e-05 | < 1e-05 | 
G32U A33C C68U | < 1e-05 |  | < 1e-05 | < 1e-05
G29C A48G G59C | < 1e-05 | < 1e-05 | < 1e-05 | < 1e-05
A33U G35U U54A | < 1e-05 |  | < 1e-05 | 
U30C A33G A36C G62C | < 1e-05 |  |  | 
U30C G32U U47A | 0.000115 ± 3.3e-05 |  |  | 0.000106 ± 3e-05
U30G A42C U54C G62A | < 1e-05 |  | < 1e-05 | 
U30G A33G | < 1e-05 |  | < 1e-05 | 
G32A A53C C58U C71A | < 1e-05 |  |  | 
G32C G35A C68A | < 1e-05 |  |  | < 1e-05
G32A U57A C70G | 0.000649 ± 0.00023 |  |  | 
U30C G37C G62A | < 1e-05 | < 1e-05 |  | 
C34G U45G C50A C58A C71G | < 1e-05 |  | < 1e-05 | 
G29A A64C U65A C68U | < 1e-05 |  |  | 
U31A G35U U65C G66U | < 1e-05 |  | < 1e-05 | < 1e-05
G32U G35A A42C | < 1e-05 | < 1e-05 |  | 

Variant | self-cleavage kobs at 640 uM GlcN6P (glucosamine-6-phosphate [1]) [s⁻¹] | self-cleavage kobs at 160 uM GlcN6P (glucosamine-6-phosphate [2]) [s⁻¹] | self-cleavage kobs at 10000 uM GlcN6P (glucosamine-6-phosphate [3]) [s⁻¹] | self-cleavage kobs at 2500 uM GlcN6P (glucosamine-6-phosphate [4]) [s⁻¹]
C34A C67U C68A | < 1e-05 |  |  | < 1e-05
G35A U54G | < 1e-05 | < 1e-05 |  | < 1e-05
G29A U47G A53U G60C | < 1e-05 |  |  | 
A15G G38U | < 1e-05 |  |  | 
G35A G41A C50A | < 1e-05 |  |  | 
U31G G35U G60U C71U | < 1e-05 | < 1e-05 |  | 
A15U U57C A64U | < 1e-05 |  |  | 
U30G G35A G41C A53C U55C U56G C67U | < 1e-05 |  |  | < 1e-05
A33G G40A G60A C61A C70U | < 1e-05 |  |  | < 1e-05
U30C A36U | < 1e-05 | < 1e-05 | < 1e-05 | 
U31G A48C G59C | < 1e-05 |  |  | 
U30A U49C U57C | < 1e-05 |  |  | 
G32A G37C G51U A53C | < 1e-05 |  |  | 
A33G A39G G41A | < 1e-05 |  |  | 
U31C G32C G43C U49C G62U C68A | < 1e-05 |  |  | 
G32U U47A U56A C68U C70A | < 1e-05 |  |  | < 1e-05

Source: the supplement of paper PMC7125110
